Source: PMC2572732, “Structural Coupling of SH2-Kinase Domains Links Fes and Abl Substrate Recognition and Kinase Activation” (Cell, 2008)

Test system: optimal Abl substrate peptide
Assay: In vitro Abl kinase activity of purified Abl proteins on an optimal Abl substrate peptide
Details: SH2-KD vs KD, due to an effect on vmax

activity relative to kinase domain alone: ~4 fold
B1: SH2-KD: Abl polypeptide containing the SH2 and kinase domains, residues 138-534, HA-tagged (protein, UniProt P00519 138-534, looked up, fragment)
chain: EYLLSSGINGSFLVRESESSPGQRSISLRYEGRVYHYRINTASDGKLYVSSESRFNTLAELVHHHSTVADGLITTLHYPAPKRNKPTVYGVSPNYDKWEMERTDITMKHKLGGGQYGEVYEGVWKKYSLTVAVKTLKEDTMEVEEFLKEAAVMKEIKHPNLVQLLGVCTREPPFYIITEFMTYGNLLDYLRECNRQEVNAVVLLYMATQISSAMEYLEKKNFIHRDLAARNCLVGENHLVKVADFGLSRLMTGDTYTAHAGAKFPIKWTAPESLAYNKFSIKSDVWAFGVLLWEIATYGMSPYPGIDLSQVYELLEKDYRMERPEGCPEKVYELMRACWQWNPSDRPSFAEIHQAFETMFQESSISDEVEKELGKQGVRGAVSTLLQAPELPTKTRT
modifications: SH2-kinase domains HA tag
